# Reference: ChEMBL document CHEMBL4888484, “Replenishing the malaria drug discovery pipeline: Screening and hit evaluation of the MMV Hit Generation Library 1 (HGL1) against asexual blood stage Plasmodium falciparum ,using a nano luciferase reporter read-out” (2022)
# Out of some 4,800 compounds screened, about 410 (8.5%) showed an effect of 50% or more. The list shows a part of the results.
# Test system: Plasmodium falciparum
# Test: Confirmatory screen in NF54 pLDH assay, in single point, at 2uM, 72h
# Assay type: functional, Erythrocyte
# Conditions: timepoint 72 hour
row,Compound,% Inhibition
1,Cn1cc(CCCNc2ccc(F)cn2)cn1,9%
2,COc1cc(NC(=O)CN2C(=O)N[C@](C)(c3ccc4c(c3)OCCO4)C2=O)c(OC)cc1Cl,7%
3,Cn1cccc1C(=O)NCCNC(=O)[C@@H]1CCO1,11%
4,COC(=O)c1ccc(N(C)CC(=O)Nc2cccc(C)c2C)nn1,11%
5,COc1ccc(-c2cc(C(=O)N[C@H]3CCN(c4ccc(=O)n(C)n4)C3)c(C)n2C)cc1,41%
6,COc1ncccc1C(=O)NC[C@H](C)S(N)(=O)=O,6%
7,CCn1c(=O)c(CCC(=O)Nc2cccc(C)c2C)nc2c(C)nn(-c3ccc(C)cc3)c21,10%
8,COc1ccc(-c2nn3c([C@H]4CCCN(S(C)(=O)=O)C4)nnc3s2)c(OC)c1,7%
9,COc1cc(OC)c(NC(=O)COc2ccccc2-c2nc3ccccc3s2)cc1Cl,7%
10,Cc1nnc(-c2ccccc2NC(=O)CCC2CCC(C)O2)o1 (stereo not drawn),-16%
11,O=C(CN1CCN(Cc2cccc(Cl)c2)C1=O)NC1CC1,-3%
12,COc1ccc(-[n+]2c(-c3ccccc3)cn3c2CCC3)cc1,59%
13,O=C(c1cc(-c2ccccc2Cl)nc2ccccc12)n1nnc2ccccc21,-12%
14,Cc1cc(N2C[C@H]3CC[C@@H](C2)[C@H]3N(C)C)nc(Nc2cccc(O)c2)n1,86%
15,COc1cc(C(=O)NC(C)(C)c2c(C)noc2C)on1,7%
16,CCNC(=O)C(=O)NCc1ccc(OC)cc1,-20%
17,Cc1nn(CCOc2ccccc2)c(=O)n1-c1ccc(C(C)C)cc1,14%
18,CCc1nn2c(c1-c1ccc(C)cc1)NC(=O)C[C@H]2C(=O)O,12%
19,O=C(CN1CCC[C@H]1C1CCCC1)NCC1CCCCC1,61%
20,CCOC(=O)[C@@H](NC(=O)Nc1ccccc1C(F)(F)F)C(F)(F)F,11%
21,CC1CCC(N2C[C@@H](C(=O)OCC(C)(C)C)CC2=O)CC1 (stereo partly drawn),12%
22,Cc1ccc(C(=O)N2CCCC23CCC3)nn1,-9%
23,Cc1ccc(Nc2c(-c3ccco3)nc3nc(C)cc(C)n23)cc1,-1%
24,O=C(C[C@H]1CCOC1)Nc1cccc(F)c1,-4%
25,CS(=O)(=O)CCOc1cccc(NCc2cocn2)c1,3%
26,CCCNCc1cc(Br)ccc1OCC(N)=O,-11%
27,Cc1ccc(NC(=O)C2CC2c2ccccc2)cc1NC(=O)C1CC1c1ccccc1 (stereo not drawn),15%

row,Compound,% Inhibition
1,CS(=O)(=O)n1cnc2cc(F)c(F)cc21,-8%
2,CC(=O)Nc1ccc(NC(=O)CN2CCCN(c3cncc(F)c3)CC2)cc1,0%
3,Clc1ccc(C[n+]2ccc(-c3nc4ccccc4o3)cc2)c(Cl)c1,48%
4,COc1ccc(C(=O)N2CCCn3cc(-c4ccccc4F)nc32)cn1,2%
5,CNC(=O)c1cc(N2CCN(c3ncc(C(F)(F)F)cc3Cl)CC2)ccc1NC(=O)c1ccccc1Cl,13%
6,CC(C)CC[C@@H](CCNCCN(C)C)c1ccc(Cl)cc1,103%
7,CC(C)NC[C@H]1COCc2nc3ccccc3n21,-15%
8,COc1ccc(S(=O)(=O)N[C@H]2CCCc3cn(CC(F)(F)F)nc32)cc1,14%
9,O=C(Nc1ccc(-c2nc3cnccc3o2)c(Cl)c1)c1sc2ccccc2c1Cl,5%
10,CCC1(C)NC(=O)N(CC(O)CN2C(=O)c3ccccc3C2=O)C1=O (stereo not drawn),-5%
11,CCn1cc(Br)c(=O)c(NC(=O)[C@H]2CCCOC2)c1,-7%
12,CCN(CC)c1ccc(C(=O)C(F)(F)F)c(O)c1,0%
13,C=CCOCC(O)CN(Cc1c(-c2ccccc2)noc1N1CCCCC1C)CC1CCCO1 (stereo not drawn),10%
14,CCOc1ccc2c(n1)CCN(C(=O)c1ccsc1)C2,-12%
15,Cc1nc(CN(C)C(=O)c2ccccc2Nc2cccc(C)c2C)cs1,10%
16,CCN1C(=O)Cc2cc(NC(=O)c3ccc(Br)o3)ccc21,12%
17,Cc1cc(Nc2ccc(CN3CCCC3=O)cc2)nc(C2CC2)n1,-2%
18,Cc1cc(C)cc(-n2cc(C(=O)NCCCc3ccccc3)nn2)c1,8%
19,CCc1cccc2c(C3=CCN(C(=O)NC[C@H]4COCCO4)CC3)c[nH]c12,8%
20,O=C(NCc1ccccc1OC1CCC1)N(CCO)C1CC1,9%
21,CC(C)OC1CC(Nc2cccc(CO)c2)C1 (stereo not drawn),-6%
22,COc1ccc(OC)c(NC(=O)CN2CCc3[nH]c4ccc(F)cc4c(=O)c3C2)c1,83%
23,CN(C)c1nc(CN2CCC(CO)CC2)ns1,6%
24,CC(C)(C)c1ccc(NC(=O)c2ccnnc2)c(O)c1,-10%
25,Cc1occc1C(=O)NCCCn1ncc2c(C)cccc21,1%
26,C[C@@H](c1cc(Cl)ccc1Cl)n1nccc1NC(=O)c1ccoc1,-6%
